Some of the results follow. These are further read-outs of the screen, such as a control signal, another cell line or another target. No call is given for them.
Tests used:
Test in all cases: Primary Screen for Target Class Profiling of Small Molecule Inhibitors of Methyltransferases
[1] = target: Glycine N-methyltransferase (Homo sapiens) (UniProt Q14749); conditions: purified enzyme, MTase-Glo SAH luminescence; measured here: GNMT inhibition; at 40 µM; stronger effect = lower value
Method in brief: (§1)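 Each enzyme was reacted with SAM and its substrate, with compounds tested once at 40 uM; SAH formed was read by MTase-Glo luminescence.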

[2] = target: Guanidinoacetate N-methyltransferase (Homo sapiens) (UniProt Q14353); conditions: purified enzyme, MTase-Glo SAH luminescence; measured here: GAMT inhibition; at 40 µM; stronger effect = lower value
Method in brief: as §1

[3] = target: Histamine N-methyltransferase (Homo sapiens) (UniProt P50135); conditions: purified enzyme, MTase-Glo SAH luminescence; measured here: HNMT inhibition; at 40 µM; stronger effect = lower value
Method in brief: as §1

[4] = target: Nicotinamide N-methyltransferase (Homo sapiens) (UniProt P40261); conditions: purified enzyme, MTase-Glo SAH luminescence; measured here: NNMT inhibition; at 40 µM; stronger effect = lower value
Method in brief: as §1

[5] = target: Phenylethanolamine N-methyltransferase (Homo sapiens) (UniProt P11086); conditions: purified enzyme, MTase-Glo SAH luminescence; measured here: PNMT inhibition; at 40 µM; stronger effect = lower value
Method in brief: as §1
On the % scale 0 is the no-effect control and ±100 the full control effect.

| SMILES | activity change, negative = inhibition [1] | activity change, negative = inhibition [2] | activity change, negative = inhibition [3] | activity change, negative = inhibition [4] | activity change, negative = inhibition [5] |
| --- | --- | --- | --- | --- | --- |
| Cc1cc(OC2CN(C(=O)c3ccccn3)C2)ccc1F | -3.65% | 1.93% | 1.2% | -16.8% | -0.727% |
| CCc1cc2c(cc3n2CC(C)(C(=O)NC2CCC(C)CC2)N(C2CCCC2)C3=O)s1 (stereo not given) | 3.44% | 2.39% | 5.62% | 2.41% | 1.45% |
| CCCCCNC(=O)c1ccc2c(=O)nc3c(-c4ccc(OC)cc4)n[nH]n3c2c1 | 3.89% | 0% | 8.35% | 5.28% | 1.34% |
| CN1CCN(C(=O)c2cc3cc(Cl)ccc3[nH]2)CC1 | 2.48% | 5.87% | 9.34% | -7.76% | 3.86% |
| Cc1ccc(C)c(CSc2nnc3n(C)c(=O)c4ccc(C(=O)NC5CCCCC5)cc4n23)c1 | -0.298% | 4.26% | 1.03% | -3.34% | 0.746% |
| CN1C(=O)CC[C@]2(C(=O)NCc3cc(F)cc(F)c3)CCCC[C@@H]12 | -0.825% | -0.226% | 2.53% | -3.04% | -3.19% |
| COc1cccc(S(=O)(=O)N2CC3(Cc4ccccc4C(=O)N3)C2)c1 | -5.83% | -5.98% | -3.76% | -21.7% | -6.93% |
| O=C(O)C1(Cc2cccc(Nc3nccs3)n2)CCC(Oc2cccc(Cl)c2F)CC1 (stereo not given) | -38.9% | -15.8% | -63.2% | -43.3% | -36.4% |
| CCCCCC(O)CCCC(=O)O (stereo not given) | -3.31% | 5.31% | -1.64% | -3.22% | 9.39% |
| CCC(O)(C(=O)OCc1ccccc1NC(=O)CCC(=O)O)C(C)O (stereo not given) | 1.98% | 2.49% | 7.58% | -12.4% | -6.84% |
| COc1ccc(C(=O)N(c2ccc(OC)cc2)S(=O)(=O)c2ccc3c(c2)n(C)c(=O)n3C)cc1 | -9.5% | 2.53% | -1.22% | -11.3% | -6.25% |
| Cc1noc2c(NCc3ccccc3)cc(-c3cccnc3)nc12 | -13% | -6.61% | -6.66% | -32.1% | -16.8% |
| O=C1CC(C(=O)O)C2(CCN(c3cc(C4CC4)ncn3)CC2)N1 (stereo not given) | -1.97% | -3.3% | 0.285% | -5.28% | -5.82% |
| COC(=O)c1ncn2c1C(=O)N(CCC1=CCCCC1)C(C)(C(=O)NCc1ccccc1)C2 (stereo not given) | 6.32% | 0% | 13.3% | 7.12% | 9.59% |
| C/C1=C\CCC2=C[C@@H](OC2=O)c2c(C)coc2C1 | -2.86% | -2.69% | 3.86% | -11% | -8.62% |
| COc1ccc(-c2cc3n(n2)CC(C)(C(=O)NCc2ccccc2OC)N(Cc2ccc(C)o2)C3=O)cc1 (stereo not given) | 1.83% | 3.85% | 7.64% | 2.5% | 1.39% |
| COc1ccc(OC)c2c1cc1n2CC(C)(C(=O)NC2CCCC2)N(Cc2cccs2)C1=O (stereo not given) | -2.74% | 3.49% | 1.33% | -1.82% | -0.761% |
| O=C(Cn1c(=O)oc2cc(S(=O)(=O)N3CCCC3)ccc21)N1CCN(c2ccccc2F)CC1 | 13.4% | 0.041% | 12.6% | 4.06% | 3.04% |
| CC(C)CCn1c(=O)c2ccccc2n2c(=O)n(CC(=O)Nc3ccc(Cl)cc3)nc12 | -2.66% | 2.72% | 1.23% | -5.12% | 0.401% |
| CCC(C(=O)NCc1ccc(OC(C)C)cc1)n1ccc2cc(S(=O)(=O)N3CCCCC3)ccc21 (stereo not given) | 4.74% | 1.92% | 1.24% | 2.91% | 1.93% |
| COCCN1CCCC(c2[nH]ccc2C(=O)NCCc2nc3ccccc3[nH]2)C1 (stereo not given) | -2.73% | -9.98% | -29.6% | -13.3% | -8.69% |
| CC(=O)OC1CC(C)(C(=O)O)CC2C3=CC(=O)C4C5(C)CCC(OC6OC(C(=O)O)C(O)C(O)C6OC6OC(C(=O)O)C(O)C(O)C6O)C(C)(C)C5CCC4(C)C3(C)CCC12C (stereo not given) | -2.21% | -4.27% | 5.13% | -13% | -9.03% |
| Cc1cccc(-c2[nH]ncc2-c2ccc(F)c(-c3cnn(CCO)c3)c2)n1 | -23.8% | -15.1% | -13.7% | -23.2% | -20.5% |
| COc1ccc(CCNC(=O)c2cc3n(n2)CC(C)(C(=O)NCc2ccc(C)cc2)N(C)C3=O)c(OC)c1 (stereo not given) | 5.79% | 1.37% | 7.36% | 5.57% | 5.81% |
| COC(=O)[C@H]1CN(C(=O)NC(C)C)CCN1C(=O)C1CCCCC1 | -5.38% | -8.58% | -1.96% | -12.6% | -6.76% |
| O=C(c1ccncc1)N1CCC2(CN[S+](=O)([O-])c3cnccc3O2)C1 (stereo not given) | -3.84% | -7.44% | -0.836% | -12.8% | -8.35% |
| CCCn1c(=O)c2ccc(C(=O)NC(C)CC)cc2n2c(=O)n(CC(=O)Nc3ccccc3F)nc12 (stereo not given) | -3.47% | -0.603% | 3.09% | -6.11% | -3.28% |
| COc1cc(N)c(Cl)cc1C(=O)OCCN1CCCCC1 | -6.94% | 4.2% | -0.061% | -6.86% | 3.51% |
| CCC(C)(O)C(O)C(=O)OCc1ccc(O[C@@H]2O[C@H](CO)[C@@H](O)[C@H](O)[C@H]2O)c(OC)c1 (stereo not given in full) | 4.77% | 4.79% | 12.7% | -8.99% | 6.56% |
